Results as given in PubChem BioAssay AID504332 (National Center for Advancing Translational Sciences (NCATS), 2011).
The whole screen tested about 350,000 compounds, of which about 31,000 (8.9%) were called active. Inconclusive means that the source gave no clear call. Such entries were picked first, then a sample of the others. Calls follow the shape of the dose curve; as a rule, active = well fitted inhibition curve with a large enough effect; inconclusive = small, poorly fitted or top-dose-only effect; inactive = no such curve, though single readings can be large or run the other way. Potencies beside an inconclusive call are fits to weak or partial responses and may not hold up.

Molecular target: Histone-lysine N-methyltransferase EHMT2 (Homo sapiens) (UniProt Q96KQ7)
Chain of UniProt Q96KQ7 (Q96KQ7 whole entry, looked up): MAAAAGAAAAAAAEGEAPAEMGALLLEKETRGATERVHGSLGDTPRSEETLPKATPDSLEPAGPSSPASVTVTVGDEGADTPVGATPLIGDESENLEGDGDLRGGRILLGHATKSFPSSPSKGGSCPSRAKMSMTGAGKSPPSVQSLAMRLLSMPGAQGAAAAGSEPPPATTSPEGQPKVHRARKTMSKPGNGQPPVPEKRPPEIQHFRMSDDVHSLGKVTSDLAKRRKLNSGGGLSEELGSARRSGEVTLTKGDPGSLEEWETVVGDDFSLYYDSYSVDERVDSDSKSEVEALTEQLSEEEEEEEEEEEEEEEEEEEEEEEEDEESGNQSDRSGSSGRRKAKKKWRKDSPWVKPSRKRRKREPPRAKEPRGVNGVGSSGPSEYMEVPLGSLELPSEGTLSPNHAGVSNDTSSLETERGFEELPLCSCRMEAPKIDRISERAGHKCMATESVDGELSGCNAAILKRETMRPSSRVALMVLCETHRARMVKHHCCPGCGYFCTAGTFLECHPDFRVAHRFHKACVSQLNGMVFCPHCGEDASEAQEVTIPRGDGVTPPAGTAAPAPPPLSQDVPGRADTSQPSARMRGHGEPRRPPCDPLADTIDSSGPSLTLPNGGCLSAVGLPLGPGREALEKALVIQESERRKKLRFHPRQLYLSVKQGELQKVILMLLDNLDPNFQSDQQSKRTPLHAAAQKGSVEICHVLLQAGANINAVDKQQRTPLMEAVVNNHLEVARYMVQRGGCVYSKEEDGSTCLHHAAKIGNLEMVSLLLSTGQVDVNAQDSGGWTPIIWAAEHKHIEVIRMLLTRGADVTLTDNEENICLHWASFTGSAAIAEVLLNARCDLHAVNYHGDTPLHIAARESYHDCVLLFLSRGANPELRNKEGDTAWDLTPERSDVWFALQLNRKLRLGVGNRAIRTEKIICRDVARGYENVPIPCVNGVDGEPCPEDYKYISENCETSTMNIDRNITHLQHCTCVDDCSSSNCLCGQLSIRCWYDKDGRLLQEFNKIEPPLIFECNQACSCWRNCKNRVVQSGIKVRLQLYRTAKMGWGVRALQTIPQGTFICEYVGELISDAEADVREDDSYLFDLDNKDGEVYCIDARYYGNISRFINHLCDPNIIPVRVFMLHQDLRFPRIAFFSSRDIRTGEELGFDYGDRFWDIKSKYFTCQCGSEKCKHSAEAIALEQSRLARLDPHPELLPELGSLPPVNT
Test: qHTS Assay for Inhibitors of Histone Lysine Methyltransferase G9a; also: nearly all actives have a fitted effect of over 75% in size
Settings: G9a H3K9 monomethylation, AlphaScreen, 2 h; activity, negative = inhibition: at 59 µM (top of the series) unless noted
Outline: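 Step 1: enzyme (final 20 nM) with compound, 15 min RT. Step 2: substrate peptide 500 nM and SAM 20 uM, 2 h RT. Step 3: anti-H3K9me1 antibody and AlphaScreen beads, 10 min, then plate read.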
% is scaled to controls: 0 for no effect and ±100 for the full control effect; potency is read from the fitted curve at half-maximal effect; tags tell the direction and shape of the fitted curve.

Q: With `Cc1ccc(COCC(CC(C)C)N2CCN(C(=O)c3cccc(C(F)(F)F)c3)CCC2=O)cc1` (stereo not given) as the compound, how does the Potency read?
A: inconclusive: 79.4 µM [inhibitor, partial curve, poor fit]

Q: How did the Potency turn out when `CC(CN1CCCC1)OC(=O)Cc1ccc(Cl)cc1` (stereo not given) was run?
A: inconclusive: 79.4 µM [inhibitor, single point]

Q: Which Potency does the source give for `COc1ccc(C(=O)CSc2nnc(NC(=O)C3CC(=O)N(c4ccccc4)C3)s2)cc1` (stereo not given) here?
A: active: 44.7 µM

Q: How did the “activity, negative = inhibition” value turn out when `Cc1cccc(C)c1OC(=O)CSc1nnc(CNC(=O)c2ccccc2)o1` was run?
A: inactive: -3.18%

Q: Which Potency does the source give for `O=S(=O)(NCc1ccccc1Cl)c1ccc(-n2cnnn2)cc1` here?
A: inconclusive: 89.1 µM [inhibitor, single point]

Q: How did the Potency turn out when `Cc1cc(C)nc(S/C=C/C(=O)c2ccccc2F)n1` was run?
A: active: 14.1 µM

Q: `O=C(CCCn1c(=S)[nH]c2ccccc2c1=O)N1CCOCC1` was tested. Which “activity, negative = inhibition” value did it give?
A: inactive: -3.16%

Q: How did the Potency turn out when `CCN1CCCC1CNC(=O)c1ccc(N2CCOCC2)c(NS(=O)(=O)c2ccc(OC)cc2)c1` (stereo not given) was run?
A: active: 50.1 µM

Q: For `CC(NC(=O)COC(=O)c1ccc2c(=O)n3c(nc2c1)CCCCC3)c1ccccc1` (stereo not given), which Potency is on record?
A: inconclusive: 7.94 µM [inhibitor, single point]

Q: Which Potency does the source give for `O=C(CN1CCCN(S(=O)(=O)c2ccc(Br)cc2)CC1)Nc1cccc(C(F)(F)F)c1` here?
A: inconclusive: 15.8 µM [inhibitor, partial curve, poor fit]

Q: With `Cc1ccc(NC(=O)c2cnc(SCC(=O)N3CCOCC3)n(C)c2=O)cc1C` as the compound, how does the “activity, negative = inhibition” value read?
A: inactive: -3.23%

Q: `O=C(CCCc1nc(-c2ccc(Cl)cc2)no1)N1CCOCC1` was tested. Which Potency did it give?
A: inconclusive: 39.8 µM [inhibitor, single point]

Q: Which Potency does the source give for `O=C(Nc1c(C(=O)O)[nH]c2ccccc12)NC1CCCCC1` here?
A: inconclusive: 22.4 µM [inhibitor, single point]

Q: `N#CC1=C(N)SC(N)=C(C#N)C1c1cccc(O)c1` was tested. Which Potency did it give?
A: inconclusive: 2.51 µM [inhibitor, partial curve, poor fit]

Q: With `N#Cc1ccccc1NC(=O)CSc1ccc([N+](=O)[O-])cn1` as the compound, how does the Potency read?
A: active: 50.1 µM

Q: Which activity, negative = inhibition does the source give for `COc1ccccc1C(=O)NC(=O)COC(=O)Cn1[nH]c(=O)c2ccccc2c1=O` here?
A: inactive: 20.2% [at 2.33 µM]

Q: With `O=C(CSc1oc(-c2ccccc2)nc1S(=O)(=O)c1ccc(Cl)cc1)NC1CCCCC1` as the compound, how does the Potency read?
A: inconclusive: 17.8 µM [inhibitor, single point]

Q: With `C#CCOCCOCCOCCNc1nc(N2CCN(C(=O)[C@H](CCCCN)n3cc(C(N)COC(=O)C(F)(F)F)nn3)CC2)nc(N2CCN(C(=O)[C@H](CCCCN)n3cc(C(N)CC(C)C)nn3)CC2)n1` (stereo not given in full) as the compound, how does the Potency read?
A: inconclusive: 10 µM [inhibitor, single point]

Q: How did the Potency turn out when `COc1cc(NC(=S)Nc2ccc(OC(F)F)cc2)cc(OC)c1` was run?
A: inconclusive: 79.4 µM [inhibitor, partial curve, poor fit]

Q: With `Cc1cccc(N2CCN(C(=O)c3ccc4c(Cl)c5c(nc4c3)CCCC5)CC2C)c1` (stereo not given) as the compound, how does the Potency read?
A: inconclusive: 11.2 µM [inhibitor, partial curve]

Q: How did the Potency turn out when `Cn1c(C(=O)N2CCN(Cc3ccc4c(c3)OCO4)CC2)cc2sccc21` was run?
A: inconclusive: 50.1 µM [inhibitor, partial curve, poor fit]

Q: How did the activity, negative = inhibition turn out when `CCCCn1c(N)c(N(C)C(=O)c2ccc(Br)o2)c(=O)[nH]c1=O` was run?
A: inactive: -0.177% [at 2.33 µM]

Q: `CC(=O)Nc1ccc(C2C(=O)c3ccccc3C2=O)cc1` was tested. Which Potency did it give?
A: active: 50.1 µM

Q: Which Potency does the source give for `S=C1NNC2(CC3CC2C2CCCC32)NN1` (stereo not given) here?
A: active: 1.78 µM

Q: `O=C(O)c1ccc(-c2ccccc2)[nH]c1=O` was tested. Which Potency did it give?
A: active: 56.2 µM

Q: How did the Potency turn out when `COc1ccc(NS(=O)(=O)c2ccc(/C=C/C(=O)O)cc2)cc1S(=O)(=O)N1CCOCC1` was run?
A: inconclusive: 50.1 µM [inhibitor, partial curve, poor fit]

Q: Which Potency does the source give for `CCN1CCN(c2ccc(S(=O)(=O)N3CCCCC3)cc2NC(=O)c2ccc(OC(F)F)cc2)CC1` here?
A: active: 14.1 µM

Q: How did the Potency turn out when `COc1ccc(NC(=O)CN(C)C(=O)CN2C(=O)NC3(CCCCC3)C2=O)cc1` was run?
A: inconclusive: 5.62 µM [inhibitor, partial curve, poor fit]

Q: `CCN(CC)c1ccc(C(=O)N/N=C(\C)c2ccc(O)cc2)cc1` was tested. Which “activity, negative = inhibition” value did it give?
A: inactive: -8.6%

Q: `N#Cc1ccc(C(=O)CSc2n[nH]c(=O)n2Cc2ccco2)cc1` was tested. Which Potency did it give?
A: inconclusive: 70.8 µM [inhibitor, partial curve, poor fit]

Q: With `COC(=O)CSCC(=O)Nc1nnc(-c2ccccc2C)s1` as the compound, how does the “activity, negative = inhibition” value read?
A: inactive: -35.5% [at 102 µM]

Q: For `Cc1cc(N2CCN(C)CC2)nc2ccc(NC(=S)NC3CC3)cc12`, which Potency is on record?
A: inconclusive: 63.1 µM [inhibitor, single point]

Q: `Cn1cccc1C(=O)OCC(=O)Nc1ccc2c(c1)OCO2` was tested. Which “activity, negative = inhibition” value did it give?
A: inactive: -37.3% [at 102 µM]

Q: For `COc1ccc(C(=O)Nc2cc(OC)c(NC(=O)c3ccco3)cc2OC)cc1`, which Potency is on record?
A: inconclusive: 22.4 µM [inhibitor, partial curve, poor fit]

Q: For `COc1ccc2c(=O)c(Oc3ccc(C(=O)O)cc3)c(C(F)(F)F)oc2c1`, which Potency is on record?
A: inconclusive: 17.8 µM [inhibitor, partial curve, poor fit]

Q: For `Cc1noc(C)c1-c1nc(CS(=O)(=O)c2ccccc2)no1`, which “activity, negative = inhibition” value is on record?
A: inactive: 16.5% [at 102 µM]

Q: `O=C(Nc1cc(Cl)cc(Cl)c1)c1coc(=O)c(Br)c1` was tested. Which Potency did it give?
A: active: 50.1 µM

Q: `Cc1nc2c(cc1NC(=O)c1ccccc1)nc(C)n2Cc1ccccc1` was tested. Which “activity, negative = inhibition” value did it give?
A: inactive: 22.2% [at 102 µM]

Q: With `Cc1cc(C)n2nc(SCC(=O)N/N=C/c3ccccn3)nc2n1` as the compound, how does the Potency read?
A: active: 8.91 µM

Q: How did the Potency turn out when `O=C1c2ccccc2C(=O)c2cc(S(=O)(=O)Nc3ccccc3)ccc21` was run?
A: inconclusive: 22.4 µM [inhibitor, single point]

Q: How did the Potency turn out when `Cc1cc(C)c2nc(N(CCCN(C)C)C(=O)c3ccc4c(c3)OCCO4)sc2c1` was run?
A: active: 50.1 µM

Q: `Cc1c(C)n(CCCN(C)C)c2ncnc(Nc3ccc(F)cc3)c12` was tested. Which Potency did it give?
A: inconclusive: 79.4 µM [inhibitor, single point]

Q: For `COc1ccc(S(=O)(=O)N2CN(Cc3ccco3)c3nc4ccccc4nc32)cc1`, which Potency is on record?
A: inconclusive: 3.16 µM [inhibitor, partial curve, poor fit]

Q: With `COc1ccc(OC)c(NC(=O)CC2C(=O)NCCN2C(=O)C(F)(F)F)c1` (stereo not given) as the compound, how does the “activity, negative = inhibition” value read?
A: inactive: -1.4%

Q: `O=C(CCS(=O)(=O)c1ccc(Br)cc1)NCc1ccco1` was tested. Which “activity, negative = inhibition” value did it give?
A: inactive: -21.4%

Q: How did the “activity, negative = inhibition” value turn out when `CC(C)C(=O)Nc1c(O)c2ccccc2[nH]c1=O` was run?
A: inactive: -23% [at 102 µM]

Q: With `CCOc1ccc(C(=O)CCC(=O)N(CC)CC(=O)Nc2c(F)cccc2F)cc1` as the compound, how does the Potency read?
A: inconclusive: 56.2 µM [inhibitor, partial curve]

Q: How did the “activity, negative = inhibition” value turn out when `CCn1c(O)c(C=Nc2ccccc2)sc1=O` was run?
A: inactive: -31.3% [at 102 µM]

Q: `COc1ccc(S(=O)(=O)N2CCN(Cc3cccc(OC)c3)CC2)cc1` was tested. Which “activity, negative = inhibition” value did it give?
A: inactive: 8.7% [at 102 µM]

Q: With `CCc1cccc(CC)c1NC(=O)C(Cc1ccccc1)NS(=O)(=O)c1cccc2nsnc12` (stereo not given) as the compound, how does the Potency read?
A: inconclusive: 0.708 µM [inhibitor, full curve, poor fit]

Q: For `O=C(NCc1ccco1)C1CCC(CNS(=O)(=O)c2cccc3cccnc23)CC1` (stereo not given), which Potency is on record?
A: inconclusive: 79.4 µM [inhibitor, single point]

Q: How did the “activity, negative = inhibition” value turn out when `c1ccc(-c2nnc(CN3CCCCC3)o2)cc1` was run?
A: inactive: 3.14% [at 102 µM]

Q: Which Potency does the source give for `CCOc1cccc(CN2CCC(n3nccc3NC(=O)C3CC3)CC2)c1O` here?
A: inconclusive: 79.4 µM [inhibitor, single point]

Q: Which “activity, negative = inhibition” value does the source give for `Cc1ccc(NC(=O)c2oc3ccccc3c2NC(=O)c2ccc(F)c(F)c2)cc1` here?
A: inactive: 17.1%

Q: With `Cc1cc2c3c(c1)C(C)CC(C)(C)N3C(=O)C2=C(C#N)C#N` (stereo not given) as the compound, how does the activity, negative = inhibition read?
A: inconclusive: -59.2% [inhibitor]

Q: `COc1ccc(S(=O)(=O)NCCS(=O)(=O)N2CCN(c3ccccc3)CC2)cc1OC` was tested. Which “activity, negative = inhibition” value did it give?
A: inactive: -13.1%

Q: With `c1ccc(N2CCN(c3nc(NCc4ccco4)c4ccccc4n3)CC2)cc1` as the compound, how does the Potency read?
A: active: 44.7 µM

Q: Which “activity, negative = inhibition” value does the source give for `COc1ccc(-n2nc(C(=O)NCC(=O)N3CCN(c4ccccc4OC)CC3)c3ccccc3c2=O)c(OC)c1` here?
A: inactive: -74.2% [at 102 µM]

Q: How did the activity, negative = inhibition turn out when `O=C(Nc1ccc(-c2nc3ccccc3o2)c(O)c1)c1cc(-n2cnnc2)ccc1Cl` was run?
A: inactive: 5.7% [at 12.7 µM]

Q: `Nc1c(C(=O)NCc2cccnc2)sc(=S)n1-c1ccccc1` was tested. Which Potency did it give?
A: inconclusive: 10 µM [inhibitor, partial curve, poor fit]

Q: For `CCCc1n[nH]c2c1/C(=N\O)CCC2`, which activity, negative = inhibition is on record?
A: inactive: -2.44% [at 12.7 µM]

Q: Which Potency does the source give for `COc1ccc(OCc2cc(C(=O)NC3CCOCC3)no2)c2ccccc12` here?
A: inconclusive: 1 µM [inhibitor, full curve, poor fit]

Q: For `S=C(NCC1CCCO1)N1CCN(c2nc(-c3ccc(Cl)cc3)cs2)CC1` (stereo not given), which Potency is on record?
A: inconclusive: 1.78 µM [inhibitor, partial curve, poor fit]

Q: How did the “activity, negative = inhibition” value turn out when `O=C(CCCCCN1C(=O)c2ccccc2C1=O)Oc1ccc2c3c(c(=O)oc2c1)CCC3` was run?
A: inactive: 6.26%

Q: Which Potency does the source give for `Cc1ccc(CNc2nc3c([nH]2)c(=O)n(C)c(=O)n3C)cc1` here?
A: active: 44.7 µM

Q: Which Potency does the source give for `COc1ccc(Cn2c(SCc3cc(C)ccc3C)nc3cc(OC)c(OC)cc3c2=N)cc1` here?
A: inconclusive: 56.2 µM [inhibitor, partial curve, poor fit]

Q: How did the Potency turn out when `CCc1cc(C(=O)c2ccc(OC)cc2)c(NC(=O)CC(C)(C)CC(=O)O)s1` was run?
A: inconclusive: 31.6 µM [inhibitor, single point]

Q: Which Potency does the source give for `CCOC(=O)c1cc(C#N)c(SCC(=O)O)[nH]c1=O` here?
A: inconclusive: 50.1 µM [inhibitor, partial curve, poor fit]

Q: For `COc1ccc(-c2cn3nc(N4CCCC(C(=O)Nc5cccc(OC)c5)C4)sc3n2)cc1` (stereo not given), which Potency is on record?
A: inconclusive: 12.6 µM [inhibitor, partial curve, poor fit]

Q: `Cc1ccc(C)c(OCC(O)CN2CCC(C)CC2)c1C` (stereo not given) was tested. Which Potency did it give?
A: inconclusive: 39.8 µM [inhibitor, single point]
